Data published in paper PMC6919601, “Identification of Plasmodium dipeptidyl aminopeptidase allosteric inhibitors by high throughput screening” (PLoS ONE, 2019).
Out of some 110,000 compounds screened, about 230 (0.21%) showed an effect of 50% or more. The list shows a part of the results.

target: DPAP1 (Plasmodium falciparum, UniProt Q8IIJ9); assay: primary screen, percent inhibition; read by cleavage of a fluorogenic dipeptide substrate; higher = more effect of the substance; parameters: species or system P. falciparum D10 trophozoite lysates; single well
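Also: 30 min substrate incubation versus DMSO and 10 µM JCP410 controls.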

DPAP1, sequence (Q8IIJ9 whole entry, looked up): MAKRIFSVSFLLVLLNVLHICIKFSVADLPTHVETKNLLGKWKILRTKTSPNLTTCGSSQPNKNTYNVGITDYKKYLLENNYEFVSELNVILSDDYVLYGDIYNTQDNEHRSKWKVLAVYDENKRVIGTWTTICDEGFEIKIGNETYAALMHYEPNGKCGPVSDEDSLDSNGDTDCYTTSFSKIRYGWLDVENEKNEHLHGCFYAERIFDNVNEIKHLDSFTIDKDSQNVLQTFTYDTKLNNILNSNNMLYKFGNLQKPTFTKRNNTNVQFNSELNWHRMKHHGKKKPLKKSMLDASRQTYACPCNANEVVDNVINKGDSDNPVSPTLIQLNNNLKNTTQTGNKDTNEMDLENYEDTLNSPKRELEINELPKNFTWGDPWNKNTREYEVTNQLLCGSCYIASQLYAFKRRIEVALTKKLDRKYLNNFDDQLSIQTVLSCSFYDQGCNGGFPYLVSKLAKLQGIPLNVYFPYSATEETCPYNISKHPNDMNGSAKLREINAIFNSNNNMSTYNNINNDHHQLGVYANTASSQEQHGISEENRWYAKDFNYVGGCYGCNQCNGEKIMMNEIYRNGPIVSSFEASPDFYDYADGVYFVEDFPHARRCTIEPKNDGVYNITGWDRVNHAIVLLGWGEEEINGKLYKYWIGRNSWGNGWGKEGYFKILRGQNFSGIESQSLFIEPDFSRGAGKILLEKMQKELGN

Row | Structure (SMILES) | % Inhibition @ 10 uM [%]
1 | CCOC(=O)c1sc(Nc2nc(NC(C)C)nc(NC(C)C)n2)nc1C | -3.08
2 | COc1ccc(OC)c(C2CC(c3cccs3)Nc3ncnn32)c1 (stereo not drawn) | 1.88
3 | Cn1c(NCCO)nc2c(c1=O)C1(CCCCC1)Cc1ccccc1-2 | -2.63
4 | Cc1ccc(NC2=C(Cl)C(=O)N(Cc3ccccc3)C2=O)cc1C | -0.68
5 | Cc1ccc(S(=O)(=O)N2c3ccccc3C(C)(c3ccccc3)CC2(C)C)cc1 (stereo not drawn) | 1.24
6 | Cc1cc(C)c(C=C2C(=O)c3ccccc3C2=O)cc1C | -2.42
7 | CCOC(=O)N1CCC(N2CCN(c3ccccc3OCC)CC2)CC1 | -2.95
8 | CCN(CC)C(=O)Cn1cc(SCC(=O)NCC2CCCO2)c2ccccc21 (stereo not drawn) | 0.568
9 | O=C(O)C(Cc1ccccc1)Nc1ncnc2sc3c(c12)CCC3 (stereo not drawn) | -1.47
10 | Cc1ccc(C(=O)C2=C(O)C(=O)N(CC3CCCO3)C2c2ccc(F)cc2)o1 (stereo not drawn) | 2.3
11 | Cc1oc(-c2ccccc2F)nc1CS(=O)(=O)CC(=O)NCCN(C)C | -1.89
12 | Cc1ccc(O)c(C(=O)c2cnc3c(c2)COc2ccccc2-3)c1 | 0.635
13 | CC(NC(=O)C1CC(=O)N(c2ccc(Cl)cc2)C1)c1ccccc1 (stereo not drawn) | 16.5
14 | COc1ccc(C(=O)N2CCN(C(=O)COc3ccccc3)CC2)cc1 | -4.7
15 | CCOC(=O)/C(C#N)=C\c1ccc(-c2ccc(Cl)cc2Cl)o1 | -6.68
16 | CCCc1[nH]nc2c1C(c1cccc(Cl)c1)C(C#N)=C(N)O2 (stereo not drawn) | -5.14
17 | CCN1CCC(NCCc2ccccc2Cl)CC1 | 0.565
18 | CCc1ccccc1NC(=O)CC1Sc2ccccc2NC1=O (stereo not drawn) | -2.58
19 | O=C(O)c1ccc(S(=O)(=O)N2CCCCC2)cc1 | 18.7
20 | CC(C)CC(C(=O)NCC#N)c1cccc(-c2cnc3ccccc3c2)c1 (stereo not drawn) | -1.41
21 | O=C1CC(N2CCN(c3ncccn3)CC2)C(=O)N1c1cccc(Br)c1 (stereo not drawn) | 1.57
22 | CCn1c(=N)n(CC(=O)c2ccccc2)c2ccccc21 | 1.62

Row | Structure (SMILES) | % Inhibition @ 10 uM [%]
23 | CCCn1c(=N)c(C(N)=O)cc2c(=O)n3cc(C)ccc3nc21 | 1.97
24 | N#CC1=C(N)Oc2cc(N)ccc2C1c1ccc([N+](=O)[O-])cc1 (stereo not drawn) | 9.08
25 | CCOC(=O)C1=C(CC)OC(N)=C(C#N)C1c1cccc(Cl)c1 (stereo not drawn) | -2
26 | Cn1ccnc1C(O)(c1ccccc1)c1ccccc1 | -5.48
27 | CCN(CC)C(=O)CN(c1cc(C)ccc1C)S(C)(=O)=O | -5.88
28 | COc1ccc(C(=O)Nc2nc(-c3nnn(-c4ccc(F)c(Cl)c4)c3C)ns2)cc1 | -3.79
29 | CCN1CCN(c2ncnc3[nH]cnc23)CC1 | 0.221
30 | Cc1ccc(C(=O)Nc2nc(C)c(C(=O)N(C)C)s2)o1 | 4.11
31 | Cc1ccc2onc(CNC(=O)N3C(C)CCCC3C)c2c1 (stereo not drawn) | -0.264
32 | O=C(O)C1C2C=CC(C2)C1C(=O)Nc1nc2ccc(Br)cc2s1 (stereo not drawn) | -3.05
33 | Cc1nc(N2CCN(C)CC2)c2c(C)c(C(=O)NCc3ccccc3Cl)sc2n1 | 1.88
34 | CN(Cc1cccc(O)c1)C1CCCCC1 | -5.42
35 | CCOC(=O)c1c(NC=O)sc2c1CCC2 | 3.06
36 | CN1C(=O)C(O)(CC(=O)c2ccco2)c2ccccc21 (stereo not drawn) | 2.09
37 | O=C(Nc1nn2c(-c3ccccc3)nnc2s1)c1ccco1 | 10.7
38 | Cc1ccc(C(=O)C2=C(O)C(=O)N(c3nnc(C)s3)C2c2ccc(C(C)(C)C)cc2)cc1 (stereo not drawn) | 0.487
39 | COC(=O)c1cc(S(=O)(=O)N(Cc2ccco2)CC2CCCO2)c[nH]1 (stereo not drawn) | -4.9
40 | CCn1c(NCc2ccccc2C)nc2ccccc21 | 4.8
41 | Cc1cc(Cl)nc(Cl)c1N | 0.919
42 | COc1ccc(NCN2C(=O)C3C4c5ccccc5C(c5ccccc54)C3C2=O)cc1 (stereo not drawn) | -21.2
43 | O=C(COc1ccccc1Cl)Nc1ccc(Cl)c(Cl)c1 | -7.63
44 | O=C1CC(=O)N(CCC2=CCCCC2)C(=S)N1 | 1.74

Row | Structure (SMILES) | % Inhibition @ 10 uM [%]
45 | COc1cc(S(=O)(=O)N2CCN(c3ccccc3)CC2)c(Cl)cc1Cl | -3.95
46 | C=CCN1C(=O)S/C(=C/c2cc(C)n(CCOC)c2C)C1=O | -1.22
47 | CCN(CC)C(=O)Cn1c(=O)cc(C(F)(F)F)c2c(C)nn(-c3cccc(Cl)c3C)c21 | -2.85
48 | CC(C)Oc1ccc(N2CC(C(=O)NC3=NCCS3)CC2=O)cc1 (stereo not drawn) | -3.24
49 | COc1ccc(CCC(=O)Nc2cnc3ccccc3c2)cc1 | -0.0108
50 | CC(C)c1ccc(NC2=NS(=O)(=O)c3ccccc32)cc1 | 0.634
51 | O=C(NC1CC1)c1cc(-c2ccc(Br)cc2)nc2ccccc12 | 26.8
52 | O=S(=O)(c1ccc(Oc2ccccc2)cc1)N1CCCCCC1 | -0.833
53 | Cc1ccc(C)n1-c1nnc(N2CCCC(C(=O)NCc3cccnc3)C2)s1 (stereo not drawn) | 0.828
54 | Cc1oc(/N=C/c2ccc(Cl)cc2Cl)c(C#N)c1C | -7.3
55 | O=C(Nc1ccccc1-n1cccc1)c1ccco1 | 6.08
56 | CCO/C(O)=C1/C(C)=Nc2nc(SCc3ccccc3)nn2C1c1ccc(C)cc1 (stereo not drawn) | -1.01
57 | COc1cc(-c2nc3s/c(=C\c4ccc(Br)cc4)c(=O)n3n2)cc(OC)c1OC | -2.98
58 | CC(=O)Nc1ccc(CN2CCc3c([nH]c4ccccc34)C2)cc1 | -4.61
59 | CCCN1C(=O)c2[nH]nc(-c3ccccc3O)c2C1c1ccccc1 (stereo not drawn) | -3.12
60 | CCCCCCCCC(=O)c1c(C)[nH]c(C(=O)OCC)c1C | -4.08
61 | CCn1ncc(CN(C)C(=O)C23CC4CC(CC(C4)C2)C3)c1C | 10.7
62 | O=S(=O)(Nc1ccc(-c2cn3cccnc3n2)cc1)c1ccc(Cl)cc1 | -1.63
63 | Cc1[nH]c2ccccc2c1C1C(=O)NC(c2ccccc2)=NN1C(=O)c1ccccc1C(=O)O (stereo not drawn) | 14.5
64 | O=C(NCCC1=CCCCC1)c1nnc(-c2ccccc2)o1 | 0.974
65 | CCN(CCN(C)C)C1CCCCCCC1 | -0.274
66 | Cc1ccc(OCC(=O)N2CCN(C(=O)c3cccnc3)CC2)cc1 | -5.26
